Assay results published in PMC6919601, “Identification of Plasmodium dipeptidyl aminopeptidase allosteric inhibitors by high throughput screening” (PLoS ONE, 2019).
The whole screen tested about 110,000 compounds, of which about 230 (0.21%) showed an effect of 50% or more. The list shows a part of the results.

The compounds below were run against DPAP1 (Plasmodium falciparum, UniProt Q8IIJ9) (assay: primary screen, percent inhibition; read by cleavage of a fluorogenic dipeptide substrate; higher = more effect of the substance).
DPAP1, sequence (Q8IIJ9 whole entry, looked up): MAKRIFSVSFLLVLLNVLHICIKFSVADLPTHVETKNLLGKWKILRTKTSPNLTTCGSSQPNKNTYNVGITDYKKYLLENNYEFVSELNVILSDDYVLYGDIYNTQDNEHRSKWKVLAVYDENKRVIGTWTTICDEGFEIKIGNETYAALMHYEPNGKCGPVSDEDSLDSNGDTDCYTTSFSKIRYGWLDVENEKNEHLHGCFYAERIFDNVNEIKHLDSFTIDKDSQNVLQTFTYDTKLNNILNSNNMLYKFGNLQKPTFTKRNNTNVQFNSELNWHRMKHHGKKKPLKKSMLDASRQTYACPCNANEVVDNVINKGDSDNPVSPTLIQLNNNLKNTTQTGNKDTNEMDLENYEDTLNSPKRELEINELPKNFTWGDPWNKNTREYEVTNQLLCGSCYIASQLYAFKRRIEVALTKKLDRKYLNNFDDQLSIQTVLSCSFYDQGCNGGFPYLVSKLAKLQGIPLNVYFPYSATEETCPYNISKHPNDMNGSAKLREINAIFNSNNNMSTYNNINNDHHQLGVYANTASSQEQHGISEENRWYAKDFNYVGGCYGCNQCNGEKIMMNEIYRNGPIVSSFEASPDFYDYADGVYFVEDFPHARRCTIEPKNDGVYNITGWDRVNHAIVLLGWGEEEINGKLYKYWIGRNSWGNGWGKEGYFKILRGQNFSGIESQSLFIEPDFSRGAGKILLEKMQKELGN
Design: species or system P. falciparum D10 trophozoite lysates; single well
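Further: 30 min substrate incubation versus DMSO and 10 µM JCP410 controls.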

SMILES	% Inhibition @ 10 uM
Cc1occc1C(=O)Nc1ccccc1C(N)=O	-7%
CCOC(=O)c1ccc(OCC2c3cc(OC)c(OC)cc3CCN2C(=O)CC(C)C)cc1 (stereo not drawn)	-3.92%
COc1ccccc1CNC(=O)c1cc2c(Cl)nc3ccccc3c2s1	-2.14%
CC(CCc1ccccc1)NC(=O)Cn1ncc2c(Cl)cccc21 (stereo not drawn)	0.596%
COc1ccc(CCNC(=O)c2cc3c(s2)-c2ccccc2S(=O)(=O)C3)cc1OC	-2.17%
CCOc1cc(C(=O)NC(C)C)cc(OCC)c1OCC	-7.89%
Cn1c(/C(C#N)=C/c2ccc(N)cc2)nc2cccnc21	-3.69%
COc1ccc(/C=c2\sc3nc(-c4cccnc4)nn3c2=O)cc1OC	5.12%
COc1ccccc1CNC(=O)c1ccc(Cl)c(Cl)c1	-10.4%
COc1cc(OC)c(OC)cc1CNCCc1ccccc1	-6.59%
CCN1C(=O)N/C(=C\c2cc(C)n(-c3ccc(C)cc3)c2C)C1=O	0.683%
COc1ccc(C(=O)NCC2OCCc3ccccc32)c(O)c1 (stereo not drawn)	2.09%
O=C(c1c(F)cccc1F)N1CCN(C/C=C/c2ccccc2)CC1	-3.52%
Cc1onc(-c2c(Cl)cccc2Cl)c1C(=O)N1CCN(C)CC1	-1.32%
CCOc1ccc(C2C(C(=O)Nc3cccnc3)=C(C)Nc3nc(-c4cccs4)nn32)cc1OC (stereo not drawn)	6.73%
Cc1cc(C)n(-c2nc(N(C)C)nc(N3CCOCC3)n2)n1	-5.91%
Nc1ncnc2[nH]c(N3CCOCC3)nc12	2.22%
CCc1nnc(NC(=O)CSc2nnc(-c3ccc(OC)cc3)c(-c3ccc(OC)cc3)n2)s1	-6.44%
CCOc1cc(C2NC(=O)NC(C)=C2C(=O)Nc2ccccc2C)ccc1O (stereo not drawn)	9.5%
Cc1cc(C)c(Cc2c(C)nc3c(C(=O)NC4CC4)cnn3c2C)c(C)c1	-5.8%
COc1ccc(-c2nc(CS(=O)(=O)CC(=O)NCCCN3CCOCC3)c(C)o2)cc1	1.55%
COc1ccccc1-c1cc(C(=O)N[C@@H](CC(C)C)C(=O)NCC#N)cc(-c2ccccc2OC)c1	1.71%
CCOc1ccccc1/C=c1\sc2nc(-c3cc(OC)c(OC)c(OC)c3)nn2c1=O	-2.98%
Cc1ccccc1Cn1c(C(F)(F)F)nc2ccccc21	-0.764%
COc1ccc(S(=O)(=O)NC(CC(=O)N2CCCCCC2)c2ccco2)cc1 (stereo not drawn)	4.47%
O=C(Nc1cccc(F)c1)C1CC(=O)N(c2ccccc2)C1 (stereo not drawn)	4.3%
COc1c(Br)cc(Br)cc1/C=C1/C(=O)N=C(N)N1C	-4.51%
